According to PubChem BioAssay AID1461 (National Center for Advancing Translational Sciences (NCATS), 2008):
Screen size: about 220,000 compounds; about 2,300 (1%) were called active. This list was built around the results that the source calls inconclusive (neither active nor inactive); the mix of calls is not that of the screen. Calls come from the whole dose curve; as a rule, active = well fitted inhibition curve with a large enough effect; inconclusive = small, poorly fitted or top-dose-only effect, or effect the other way; inactive = no such curve, though single readings can be large or run the other way. No potency is given beside an inconclusive call; the fits are too rough.
Note: nearly all actives have a fitted effect of over 50% in size.
Potency is the fitted concentration of half-maximal effect; tags give direction and shape of the fitted curve.

Each molecule was assayed against Neuropeptide S receptor (Homo sapiens) (UniProt Q6W5P4) (assay: qHTS Assay for Antagonists of the Neuropeptide S Receptor: cAMP Signal Transduction). Settings: CHO-NPSR cells, cAMP TR-FRET, antagonist mode; series mostly up to 38.3 µM.
Chain of UniProt Q6W5P4 (Q6W5P4 whole entry, looked up): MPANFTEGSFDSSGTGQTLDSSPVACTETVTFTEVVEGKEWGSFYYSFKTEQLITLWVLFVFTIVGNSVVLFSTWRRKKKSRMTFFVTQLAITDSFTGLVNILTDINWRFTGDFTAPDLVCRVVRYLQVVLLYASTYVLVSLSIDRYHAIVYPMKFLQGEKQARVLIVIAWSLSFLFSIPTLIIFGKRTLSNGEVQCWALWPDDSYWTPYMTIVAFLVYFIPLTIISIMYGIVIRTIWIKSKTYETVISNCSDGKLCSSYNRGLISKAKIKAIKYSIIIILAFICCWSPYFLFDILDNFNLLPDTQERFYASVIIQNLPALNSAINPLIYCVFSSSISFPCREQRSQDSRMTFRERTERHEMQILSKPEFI
CC(C)CSc1nc2c(c(=O)[nH]c(=O)n2C)n1CC(O)COc1cccc2ccccc12 (stereo unspecified) was tested, and the Potency was inconclusive [inhibitor, single point]. CCSC1=C(C#N)C2(CCCCC2)C(C#N)=C(N)N1 was tested, and the Potency was “inactive”. In the case of COc1ccccc1C1(CC(=O)N2CCOCC2)CCOC(C(C)C)C1 (stereo unspecified), the Potency is reported as inconclusive [inhibitor, single point]. CC(C)c1ccc(/C=N/n2cnnc2)cc1 was tested, and the Potency was inconclusive [activator, single point]. For CCOc1ccc(NS(=O)(=O)c2cc(NC(=O)c3cccc(C)c3)ccc2Cl)cc1, the Potency was “inactive”. With O=C(Cc1cccc2ccccc12)Nc1ccc2oc(-c3ccccc3)nc2c1 the Potency was inconclusive [inhibitor, single point]. O=C(OCC(=O)N1CCN(C(=O)c2ccco2)CC1)c1ccccc1OCc1ccc(Cl)cc1 was tested, and the Potency was “inactive”. With Cc1ccc(N2C(=O)C3C4C=CC(C4)C3C2=O)cc1C (stereo unspecified) the Potency was inconclusive [inhibitor, single point]. For COC(=O)c1ccc(OCC2c3cc(OC)c(OC)cc3CCN2C(=O)c2ccco2)cc1 (stereo unspecified), the Potency was inconclusive [inhibitor, single point]. With Cc1cccc(C(=O)Nc2sc(-c3ccccc3)cc2C(=O)O)c1 the Potency was active: 12.6 µM. In the case of c1ccc(Cc2nnc3sc(-c4ccccn4)nn23)cc1, the Potency is reported as “inactive”. With O=C1/C(=C/c2ccc(N3CCOCC3)o2)SC(=Nc2ccccc2)N1CCc1c[nH]c2ccccc12 the Potency was inconclusive [inhibitor, partial curve]. For CCC(=O)NNc1nc2c(Cl)cccc2s1, the Potency was “inactive”. For O=C(Oc1c(-c2ccccc2)c(=O)n2c3c(cccc13)CC2)c1ccccc1, the Potency was inconclusive [activator, single point]. For Cc1ccccc1CSc1n[nH]c(NS(=O)(=O)c2ccccc2)n1, the Potency was inconclusive [inhibitor, single point]. With CSc1nnc(Cc2sc(-c3ccccc3)nc2-c2ccccc2)o1 the Potency was inconclusive [inhibitor, partial curve]. CCc1cc2c(SCC(=O)Nc3cc(C)on3)ncnc2s1 was tested, and the Potency was “inactive”. For CCc1cc2cc(C)cc(C)c2nc1SCC(=O)N1CCN(C(=O)c2ccco2)CC1, the Potency was inconclusive [inhibitor, partial curve]. Cc1ccc(NCc2nnc(SCC(N)=O)n2CCc2ccccc2)cc1 was tested, and the Potency was inconclusive [activator, partial curve]. For C(=C\c1ccccc1)/CN1CCN(Cc2nc(Cc3ccccc3)no2)CC1, the Potency was “inactive”. In the case of Cc1ccc(C)c2[nH]c(=O)c(CCNC(=O)c3ccc(S(=O)(=O)N(C)C)cc3)cc12, the Potency is reported as inconclusive [inhibitor, single point]. O=C(c1cccc2nc3ccccc3nc12)N1CCOCC1 was tested, and the Potency was “inactive”. With COc1ccc(Cl)cc1NC(=O)C(C)N1CCN(C/C=C/c2ccccc2)CC1 (stereo unspecified) the Potency was active: 10 µM. In the case of O=S(=O)(c1ccccc1)c1cnn2c(C(F)(F)F)cc(-c3ccc(F)cc3)nc12, the Potency is reported as inconclusive [inhibitor, single point]. COc1cccc(C2c3c(oc4ccccc4c3=O)C(=O)N2c2ccccn2)c1 (stereo unspecified) was tested, and the Potency was inconclusive [inhibitor, single point]. With COc1ccccc1/C=N/NC(=O)CO the Potency was “inactive”. O=C(O)/C=C\C(=O)Nc1ccc(N2CCN(c3ccc(Cl)c(Cl)c3)CC2)cc1 was tested, and the Potency was inconclusive [activator, partial curve]. CN(C)S(=O)(=O)c1cccc(-c2cn3cc(Cl)ccc3n2)c1 was tested, and the Potency was “inactive”. O=C1c2ccccc2C2=Nc3ccccc3SC(c3ccccc3F)C12 (stereo unspecified) was tested, and the Potency was inconclusive [inhibitor, single point]. Cc1cc(/C=N/n2cnnc2)c(C)n1-c1cc(Cl)ccc1Cl was tested, and the Potency was inconclusive [activator, partial curve]. With COc1cc(/C=N/NC(=S)NC2CC3CCC2C3)ccc1O (stereo unspecified) the Potency was inconclusive [activator, single point]. With Cn1c(=O)c(=O)n(C)c2cc([N+](=O)[O-])c([N+](=O)[O-])cc21 the Potency was inconclusive [inhibitor, single point]. In the case of CCCCCCn1c(N2CCN(c3cccc(Cl)c3)CC2)nc2c1c(=O)[nH]c(=O)n2C, the Potency is reported as inconclusive [inhibitor, single point]. With O=C(COC(=O)C1CC2C=CC1C2)Nc1ccccc1F (stereo unspecified) the Potency was “inactive”. COCCOC(=O)C1=C(C)N(Cc2ccccc2)C(=O)NC1c1cccc(OC)c1OC (stereo unspecified) was tested, and the Potency was “inactive”. With COc1ccc(-c2n[nH]c(C)c2-c2ccc(Cl)cc2)c(O)c1 the Potency was inconclusive [inhibitor, single point]. In the case of COc1ccc(OC)c2[nH]c(=O)c(CCNC(=O)c3ccc(S(=O)(=O)N4CCCCC4)cc3)cc12, the Potency is reported as inconclusive [inhibitor, partial curve, poor fit]. With Cc1ccc(C(=O)OCC(=O)Nc2sc3c(c2C#N)CCC3)cc1 the Potency was “inactive”. In the case of Cc1ccc(NCc2nnc(SCC(=O)c3ccccc3)o2)c(C)c1, the Potency is reported as “inactive”. For Cc1cc(/C=N/n2cnnc2)c(C)n1-c1ccc(Cl)cc1Cl, the Potency was inconclusive [activator, full curve, poor fit]. In the case of CC1=C(C(=O)N2CCOCC2)C(c2ccc(C)cc2)NC(=S)N1 (stereo unspecified), the Potency is reported as “inactive”. In the case of CCc1ccc(-c2nc(CN3CCC(C(=O)NCc4ccccc4OC)CC3)c(C)o2)cc1, the Potency is reported as “inactive”. For COc1ccc(NC(=O)N2CCCC(c3nc(-c4ccc(C(C)C)cc4)no3)C2)cc1 (stereo unspecified), the Potency was inconclusive [inhibitor, partial curve]. In the case of CCCc1ccc(Oc2cn[nH]c2-c2ccc(O)cc2O)cc1, the Potency is reported as inconclusive [inhibitor, single point]. In the case of O=C(Nc1ccc2oc(-c3cccnc3)nc2c1)c1cccnc1, the Potency is reported as inconclusive [inhibitor, single point]. In the case of COc1ccc2cc(CN(Cc3cccnc3)Cc3nnnn3Cc3ccccc3)c(=O)[nH]c2c1, the Potency is reported as inconclusive [inhibitor, single point].
